Test results published in the supplement of paper PMC8183993.
“And” between values parts separate entries of the source, which are not always exact repeats. Equal values may be shown once. Where a name gives a salt, the structure may show the parent alone. ± gives the standard deviation of the averaged measurements. In all, about 3,100 compounds were measured (“mean cytoplasmic OPP incorporation (global translation) relative to DMSO”: median about 100, lowest 2% from about 56 on). The list shows a part of the results. Bridge positions count the residues as written; N and C are the ends. Square brackets hold non-standard residues; d marks the D form. Peptide text beside a SMILES is read from it. * marks the point of attachment. Ileψ(thiazoline)Cys = CC[C@H](C)[C@H](N)C1=N[C@H](C(=O)*)CS1; dOrn = NCCC[C@@H](N)C(=O)O

tested on: U2OS; assay: mean cytoplasmic OPP incorporation (global translation) relative to DMSO (% of DMSO); higher = more protein synthesis; details: 10 µM; 24 h
Description: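 Primary image-based screen in U2OS cells: compounds at 10 uM for 24 h, then a 1 h o-propargyl-puromycin (OPP) pulse, click labelling, and high-throughput microscopy. Mean cytoplasmic OPP intensity and nuclei count were normalised to DMSO wells within each plate (DMSO = 100) and averaged over triplicate plates.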

Structure (SMILES) | mean cytoplasmic OPP incorporation
O=C(C1CCCCC1)N1CC(=O)N2CCc3ccccc3C2C1 (stereo not given) [Praziquantel] | 103
C[C@@H]1CCO[C@H]2Cn3cc(C(=O)NCc4ccc(F)cc4F)c(=O)c(O)c3C(=O)N12 | 108
C(=C\c1ccccc1)/CN1CCN(C(c2ccccc2)c2ccccc2)CC1 [Cinnarizine] | 108
CCOC(=O)O[C@]1(C(=O)COC(=O)CC)CC[C@H]2[C@@H]3CCC4=CC(=O)C=C[C@]4(C)[C@H]3[C@@H](O)C[C@@]21C [Prednicarbate] | 117
CN(C)CCN(C)C(=O)c1ccc(NC(=O)Nc2ccc(-c3nc(N4CCOCC4)c4ccn(CC(F)(F)F)c4n3)cc2)cc1 | 74.4
O=C(Nc1ccccc1-c1cn2c(CN3CCNCC3)csc2n1)c1cnc2ccccc2n1 | 48.8
COc1ccc2c(c1OC)C(=O)O[C@@H]2[C@H]1c2c(cc3c(c2OC)OCO3)CCN1C [Noscapine hydrochloride] | 96.7
CC(=O)NCCCS(=O)(=O)O [Acamprosate calcium] | 101
O=C(O)c1cc(/N=N/c2ccc(O)c(C(=O)O)c2)ccc1O [Olsalazine Sodium] | 105
C/C=C1\C(=O)C[C@H]2[C@@H]3CCC4=CC(=O)CC[C@]4(C)[C@H]3CC[C@]12C [Guggulsterone] | 89.7
C/C=C1\C(=O)C[C@H]2[C@@H]3CCC4=CC(=O)CC[C@]4(C)[C@H]3CC[C@]12C [Z-Guggulsterone] | 105
CC(C)(C)NCC(O)COc1cccc2c1CCC(=O)N2 (stereo not given) [Carteolol hydrochloride] | 101
N#Cc1cc2c(OCC(O)CN3CCN(C(c4ccccc4)c4ccccc4)CC3)cccc2[nH]1 (stereo not given) | 107
C=C1c2c(Cl)ccc(O)c2C(=O)C2=C(O)[C@]3(O)C(=O)C(C(N)=O)=C(O)[C@@H](N(C)C)[C@@H]3[C@@H](O)[C@H]12.O=C(O)c1cc(S(=O)(=O)O)ccc1O [Meclocycline sulfosalicylate] | 98.9
CNC(=O)c1cc(Oc2ccc(NC(=O)Nc3ccc(Cl)c(C(F)(F)F)c3)c(F)c2)ccn1 [Regorafenib (BAY 73-4506)] | 96.4
O=C(NCc1ccccc1)c1csc(Nc2ccncn2)n1 [Thiazovivin] | 96.2 ± 1.8
CC(C)NCC(O)COc1ccccc1-n1cccc1 (stereo not given) [Isamoltane hemifumarate] | 94.6
CNC[C@H](O)c1ccc(O)c(O)c1 [Epinephrine bitartrate (Adrenalinium)] | 102
CN1CCN(CCCN2c3ccccc3Sc3ccc(C(F)(F)F)cc32)CC1 [Trifluoperazine dihydrochloride] | 112
CNCc1ccc(-c2cc(-c3nc(-c4ccc(S(=O)(=O)C(C)C)cc4)cnc3N)on2)cc1 | 99.9
CN(C)CCN1C(=O)c2ccccc2N(C)c2ccccc21 [Dibenzepine hydrochloride] | 104
COc1ccc(OC)c(C(O)CNC(=O)CN)c1 (stereo not given) [Midodrine hydrochloride] | 48.8
CC(S)C(=O)NCC(=O)O (stereo not given) [Tiopronin (Thiola)] | 103

Structure (SMILES) | mean cytoplasmic OPP incorporation
O=C(CCc1ccc(O)cc1)c1c(O)cc(O)cc1O [Phloretin (Dihydronaringenin)] | 99.2
Cc1cn(CCN2CCN(c3ccccc3-c3cc(C#N)cc(C(=O)NCCCN4CCCC4)c3)CC2)c2ccccc12 | 30.6
CC(=O)C1=C(O)C=C2Oc3c(C(C)=O)c(O)c(C)c(O)c3[C@]2(C)C1=O [Usnic acid] | 101
CC[C@H](C)[C@H](N)C1=N[C@H](C(=O)N[C@@H](CC(C)C)C(=O)N[C@H](CCC(=O)O)C(=O)N[C@H](C(=O)N[C@H]2CCCCNC(=O)[C@H](CC(N)=O)NC(=O)[C@@H](CC(=O)O)NC(=O)[C@H](Cc3cnc[nH]3)NC(=O)[C@@H](Cc3ccccc3)NC(=O)[C@H]([C@@H](C)CC)NC(=O)[C@@H](CCCN)NC2=O)[C@@H](C)CC)CS1 [Bacitracin] ({Ileψ(thiazoline)Cys}-L[dE]IK[dOrn]I[dF]H[dD]N; lactam 4-C) | 102
OC(CNCC(O)C1CCc2cc(F)ccc2O1)C1CCc2cc(F)ccc2O1 (stereo not given) [Nebivolol (Bystolic)] | 110
OC(CNCC(O)C1CCc2cc(F)ccc2O1)C1CCc2cc(F)ccc2O1 (stereo not given) [Nebivolol hydrochloride] | 105
C[C@@H](O)[C@H]1C(=O)N2C(C(=O)O)=C(S[C@@H]3CN[C@H](CNS(N)(=O)=O)C3)[C@H](C)[C@H]12 [Doripenem Hydrate] | 103
Oc1c(I)cc(Cl)c2cccnc12 [Clioquinol] | 101
CC(C)(C#N)c1cc(Cn2cncn2)cc(C(C)(C)C#N)c1 [Anastrozole] | 97.3
COc1cc2nccc(Oc3ccc(NC(=O)Nc4cc(C)on4)c(Cl)c3)c2cc1OC [Tivozanib (AV-951)] | 105
COC(=O)/C=C/c1cc(O)ccc1O [Methyl 2,5-dihydroxycinnamate] | 96.5
CNC(=O)c1cccc(-c2ccc3c(N4CCOC[C@@H]4C)nc(N4CCOC[C@@H]4C)nc3n2)c1 | 67.8 ± 15
C=CCNC(N)=S [Allylthiourea] | 100
CN(C)CCOC(C)(c1ccccc1)c1ccccn1 (stereo not given) [Doxylamine succinate] | 104
CC(=O)c1ccc2c(c1)N(CCCN(C)C)c1ccccc1S2 [Acetopromazine maleate salt] | 103
COc1cccc(-c2cc(=O)c3ccccc3o2)c1N | 95.8 and 83.2 and 82.5
CN(C(=O)C(Cl)Cl)c1ccc(OC(=O)c2ccco2)cc1 [Diloxanide furoate] | 99.2
CCc1cc(Nc2nccc(-c3c(-c4ccc(OC)c(C(=O)Nc5c(F)cccc5F)c4)nc4ccccn34)n2)c(OC)cc1N1CCC(N2CCN(S(C)(=O)=O)CC2)CC1 | 109 ± 5
OC(CCCN1CCN(c2ncc(F)cn2)CC1)c1ccc(F)cc1 (stereo not given) | 96.1
Nc1ccn([C@H]2CC[C@@H](CO)O2)c(=O)n1 [Zalcitabine] | 115
Cc1cccc(C)c1OCC(C)N (stereo not given) [Mexiletine hydrochloride] | 101 ± 1.2
CN[C@@H](C)C(=O)N[C@H]1CN(C(=O)CC(C)C)CC[C@H]2CC[C@@H](C(=O)NC(c3ccccc3)c3ccccc3)N2C1=O | 123
